Assay results reported in PMC12136788.
The list shows a part of the results.

B1: 125316601_125316721_4730_CDS_ENSMUSG00000030655_ENSMUST00000032891|mouse|control|control (ssRNA)
RNA: GGGAGUUCUACAGUCCGACGAUCAAGCUCAGGGCCCCAUUUUUCAUCCACUUGGCCUUGAGUGGACAGUUUUUUAAAAUGCUGGACUAAGUCCUGGGCAGUGGUUGUCUUUCCCAGCUGAACCUCACUGCACUGUGCCAGCAGCAACAGAGGAUUGAGCAUCA
B2: chr11:18503389:18503390:-_ENSG00000074319_ENST00000251968|hu_hu|hu_hu_hu_mus_True|38_108 (ssRNA)
RNA: GGGAGUUCUACAGUCCGACGAUCAUUUUCCAUUUUUUCCAGAGCAGAACUUAGUUCUUCAUCCUUCUUUUUCAAAAGUUCUAUGUUUUUAUCAACUUCGGCUACUUCUUGAUCUAAGCGGGUGACCAUCUCUUCCAGUUUCUGCAACAGAGGAUUGAGCAUCA
B3: chrX:20248820:20248821:+_ENSMUSG00000001924_ENSMUST00000001989|mus_mus|mus_mus_mus_hu_True|68_108 (ssRNA)
RNA: GGGAGUUCUACAGUCCGACGAUCGGCAAAGUCAGUCACCACAAAGUCAGGUUCUGCCAGUGAGGCCGGCAAGGAUUUAAAGCUAAUCUUCUUAGGUACUUUGACCUGACUGACGAUGCCUCCACGGAUGUAGUCGGAGAAGUUCAACAGAGGAUUGAGCAUCA
B4: chr5:24309477:24309478:-_ENSMUSG00000028945_ENSMUST00000030787|mus_hu|FALSE|FALSE (ssRNA)
RNA: GGGAGUUCUACAGUCCGACGAUCCGGGCAGUUUGCUUCUUCAGGUAGAAUAUAUUCCCAGUGUCCUCAGGCUUUGCAGCAGAAUCACAUCACCGAGCAUGAAGACUUGCCUUGUGAAGCUGCCCCGUCCAUUUUUUCUGCCUCCAACAGAGGAUUGAGCAUCA
B5: 130313498_130313618_915_CDS_ENSMUSG00000052707_ENSMUST00000094053|mouse|control|control (ssRNA)
RNA: GGGAGUUCUACAGUCCGACGAUCCCCACUCCCUACAGGCCCUUUUAGGGCAAGUCCAUUGUUUUCUAAUACUGGCCAGGCACCAUGGUUGCUAGCUGAAUUCAAAGUGCUUGGAUUUAACCCUCCAUUUGAUGAAGAACUUACCAACAGAGGAUUGAGCAUCA
B6: 63468907_63470776_12739_CDS_ENSMUSG00000030451_ENSMUST00000076226|mouse|control|control (ssRNA)
RNA: GGGAGUUCUACAGUCCGACGAUCAAACUGAGAUCCACAUUCCACUUUAACUACUCCAAGGCCAGUGAGAGAAUCAAUCUUCAUGGGCACUUUGCAACCAUCACUGCCUCCUCUGCCAAGCUUGCCAUAGUCUCCAUCUCCCCACAACAGAGGAUUGAGCAUCA
B7: chr3:148802587:148802588:-_ENSG00000071794_ENST00000310053|hu_mus|hu_hu_hu_mus_False|1_78 (ssRNA)
RNA: GGGAGUUCUACAGUCCGACGAUCUCCAACAACUUGUCCUCUCAUAGUUCCAAAUAAAACGGAAUCUUGCUCUUCAUCACUCGUUAGGAAGUCAUCUGGAGGAAUAAUGUCUUGGAAUUCAAAAUGUGGCAAGAAAGUUGGAUACAACAGAGGAUUGAGCAUCA
B8: 101383963_101384083_1988_CDS_ENSG00000066422_ENST00000312938|human|control|control (ssRNA)
RNA: GGGAGUUCUACAGUCCGACGAUCUGCAACUAGAUUUUCCUGAUCUUUUAAAGGUUGGUCAACUUUCUGCCUAUGUUUUGGAAUGUCUUCGGCACAAAUAUCCUCAGCUGAUAUAUCAUUUCCCAUACCACUAUCCUCUGGCGACAACAGAGGAUUGAGCAUCA
B9: 213161987_213162107_1344_3pUTR_ENSG00000143494_ENST00000366968|human|control|control (ssRNA)
RNA: GGGAGUUCUACAGUCCGACGAUCUGCCUUUUAGUGAAUUUUUUAAAGCUAAUGGUUACCACCCACUCAGAUUCUAUUUCCAGGUGAAUCCUUAAAAAUAAAAUUCACAAGUUCUUAAUAAAUAGUUGCAGUUCCUCCUGAAGACAACAGAGGAUUGAGCAUCA
B10: 152657560_152657680_3021_3pUTR_ENSG00000162980_ENST00000295087|human|control|control (ssRNA)
RNA: GGGAGUUCUACAGUCCGACGAUCUAUAAAUUUAUUUUUUUCCCAACUAUAAUUUUGGUUUUAUGUACAAGUACACAAGUACCACCUUAUUUUUAAUGUUUACCUUGAAGGGUAGAAAACAAAAUCAUGUUUUAUAAAUGUGGUCAACAGAGGAUUGAGCAUCA
B11: chr5:21408736:21408737:-_ENSMUSG00000042453_ENSMUST00000161356|mus_hu|mus_mus_mus_hu_False|28_58 (ssRNA)
RNA: GGGAGUUCUACAGUCCGACGAUCGUUGACAGAGUUGUAGAUGGUGGCUUCAUGGAACUGGAAAGGGGAGCAGCCAAUGCUAUUGGAAGAGGAAGGAAGGCACUGGGUCUGCACGAGCUGCCAGGAAUCCGAUCUUGCAUCCUUCAACAGAGGAUUGAGCAUCA
B12: chr12:54651456:54651457:-_ENSG00000094916_ENST00000209875|hu_mus|FALSE|FALSE (ssRNA)
RNA: GGGAGUUCUACAGUCCGACGAUCGGCUGUCCUCUUGGUCUUCUUUCCCAUGUCGUGUGCCUGUUGAUCCACCUGAAGGAGUAUGGCCACCAGGUUCCCAAGAUCUAAAGUGAUCACUCACGCUAAGGCCUGCACGGUUCCUCUCAACAGAGGAUUGAGCAUCA
B13: 52703668_52703788_811_CDS_ENSG00000157077_ENST00000287727|human|control|control (ssRNA)
RNA: GGGAGUUCUACAGUCCGACGAUCUGAAGUAGGACACAGAUGGUUAACAGAUCUCCCCUCUGUUUUCGGUCUAUUCAAUGGAUCCAUUUGUUUCUCUGAAUUCAUAUCUUUUUCAGUGGACUCAUUUAUACUAAAACUAAAUUGCAACAGAGGAUUGAGCAUCA
B14: 141359452_141359572_4311_3pUTR_ENSG00000257093_ENST00000536163|human|control|control (ssRNA)
RNA: GGGAGUUCUACAGUCCGACGAUCAACUGGCACAUAGUUCAUUUCACAGUGUGGCAUGAGAUCAGGCUGACAGCUUCACAGGAGAACUAGGCCUGCUCAGGCAGGCGAGGGCUGAGGCCCGGCAGGAGAUGGUGGCAGAAGGUGCAACAGAGGAUUGAGCAUCA
B15: chr11:87793186:87793187:-_ENSMUSG00000020483_ENSMUST00000020775|mus_mus|motif|central (ssRNA)
RNA: GGGAGUUCUACAGUCCGACGAUCCCAGAGUCUGGGAGGGCAGGGAAACACAGAUCUGGACAUUCAUAAGAAAAAUAAAACCGGAAAUCAAACAUUCAAUCCUGUACCCAAUAACGGUUUGAACAGGGAACUCAGUCCCCACCACAACAGAGGAUUGAGCAUCA
B16: chr14:31074762:31074763:+_ENSG00000092140_ENST00000206595|hu_mus|motif|central (ssRNA)
RNA: GGGAGUUCUACAGUCCGACGAUCCCACACAUUGGCUUUGUUGAUGUAUAAUGUCUUAGUUUUCUUUUUAAUUUGGAAUCCGGACUCGGUCAAUAUUGUUGAAAUGUCUCUCCUAAAUUUGCUGCCUUGCCUCAGUAGUUCUUUCAACAGAGGAUUGAGCAUCA
B17: chr17:30356047:30356048:-_ENSMUSG00000062202_ENSMUST00000168787|mus_mus|FALSE|FALSE (ssRNA)
RNA: GGGAGUUCUACAGUCCGACGAUCUAUUGCUUGCUAGAGACACUGGCAACUCCAGGCUGGAUGCUGCCCCACACACAAUAGCUACACGCUGGCUACAUCCAUGGAAACCUCCCUACCAAAGGCAGCCACACCACACAGCAAAAUCAACAGAGGAUUGAGCAUCA
B18: chr5:110835399:110835400:-_ENSG00000164211_ENST00000296632|hu_hu|motif|central (ssRNA)
RNA: GGGAGUUCUACAGUCCGACGAUCUGAGAGCCUGUCUCAAAAUUUAAAAAAAAAAAAGUGAAAAUGCCCUCUCUUAGAUAGCGGUUUACUUUAGGAAUAAAACCAAACAUUGUACUAGUGAACCAAAAACAUUUCAAAUUUUUCCAACAGAGGAUUGAGCAUCA
B19: chr5:74677807:74677808:-_ENSG00000113163_ENST00000380494|hu_hu|motif|central (ssRNA)
RNA: GGGAGUUCUACAGUCCGACGAUCACGGACACAUCGGUUGUUUAGAGGAGCACUGUCAUGAUCCACAGAAAAAUUACAAACGGUCCAAGUUUCAGGGUCAUUUUCAGUCAAGGCUGGUAUCUUUCGAAUGACAGAAAGAUAUAACAACAGAGGAUUGAGCAUCA
B20: chr1:127300101:127300102:-_ENSMUSG00000026341_ENSMUST00000027579|perfect_dup|motif|central (ssRNA)
RNA: GGGAGUUCUACAGUCCGACGAUCAGUAUACUGUUUAAUCCAUUUUGACCCAUCUGUAUCAUACUUGUUAAAUUCUUUUACGGAAUCUGGGCAGACAUAACUAUAGCGCUCCUUUACUGCCUUAGCAGUUUCCAAGGAUUGUUCCAACAGAGGAUUGAGCAUCA
B21: chr2:32089778:32089779:+_ENSMUSG00000039262_ENSMUST00000036691|mus_mus|FALSE|FALSE (ssRNA)
RNA: GGGAGUUCUACAGUCCGACGAUCCUAAACAAGCUGCACAGUACACCUUUAGCAUCGUCUGCCCUUUCAAAUAGCUGGUCUAAGUGAAAGACAGAGGGAAGGCCAAAAGAAAAGCAAAGGAAAACAAAAGGACCCUCAAAAAGACAACAGAGGAUUGAGCAUCA
B22: chr3:115528449:115528450:-_ENSG00000185565_ENST00000490035|hu_hu|motif|central (ssRNA)
RNA: GGGAGUUCUACAGUCCGACGAUCCACACACGCACAGUGGAGAAAAUGAAAAUGGCACUUCCUAGCAUUUGCGGCAUGACGGGUGCUCUGGGGAGGGGGUGGAGGUGAGGAGAGGUGAGGGAGGAAAGGUGGGUGAAAAGGGAGCAACAGAGGAUUGAGCAUCA

target: T1, UNK ZnF1-3 (human, UniProt Q9C0B0 31-174); assay: nsRBNS (natural sequence RNA bind-n-seq); RBNS binding buffer (assumed for nsRBNS): 25 mM Tris pH 7.5, 150 mM KCl, 3 mM MgCl2, 0.01% Triton X-100, 500 ug/ml BSA, 20 U/ml SUPERase-In, 4 C; UNK is unkempt and MSI1 is Musashi-1; names of the RNAs are library labels; protein concentration not given here; high values mean tight binding
T1 sequence: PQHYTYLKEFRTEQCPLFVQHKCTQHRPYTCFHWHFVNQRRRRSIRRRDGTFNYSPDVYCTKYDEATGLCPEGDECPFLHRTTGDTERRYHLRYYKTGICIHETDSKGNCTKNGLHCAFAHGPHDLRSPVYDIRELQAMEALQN

| Binder | binding signal [enrichment R] |
| --- | --- |
| B1 | 0.614 |
| B2 | 0.385 |
| B3 | 0.743 |
| B4 | 0.882 |
| B5 | 0.894 |
| B6 | 1.18 |
| B7 | 1.12 |
| B8 | 0.804 |
| B9 | 1.09 |
| B10 | 0.977 |
| B11 | 1.59 |
| B12 | 0.825 |
| B13 | 0.548 |
| B14 | 1.94 |
| B15 | 1.94 |
| B16 | 0.851 |
| B17 | 1.2 |
| B18 | 1.93 |
| B19 | 1.03 |
| B20 | 0.435 |
| B21 | 2.31 |
| B22 | 2.25 |
